Measured values taken from PubChem BioAssay AID1346428 (National Center for Advancing Translational Sciences (NCATS), 2018).
Out of some 48,000 compounds screened, about 1,200 (2.5%) were called active. Another 2% or so got no clear call; they are omitted.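 The calls were made as follows: active = activation of at least 60% and not above a set upper limit (about 1 call in 100 departs from these limits); inconclusive = activation of 40% to 60%, or above that upper limit; inactive = activation under 40%.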 Some of the results follow.

biological target: Probable G-protein coupled receptor 32 (Homo sapiens) (UniProt O75388); experiment: qHTS for Agonists of Human Resolvin D1 Receptor DRV1; details: CHO-K1 GPR32 beta-arrestin PathHunter luminescence, 90 min; at 76.9 µM; active compounds read high; zero percent set by DMSO-only wells; also: 0% is about no effect
Chain of UniProt O75388 (O75388 whole entry, looked up): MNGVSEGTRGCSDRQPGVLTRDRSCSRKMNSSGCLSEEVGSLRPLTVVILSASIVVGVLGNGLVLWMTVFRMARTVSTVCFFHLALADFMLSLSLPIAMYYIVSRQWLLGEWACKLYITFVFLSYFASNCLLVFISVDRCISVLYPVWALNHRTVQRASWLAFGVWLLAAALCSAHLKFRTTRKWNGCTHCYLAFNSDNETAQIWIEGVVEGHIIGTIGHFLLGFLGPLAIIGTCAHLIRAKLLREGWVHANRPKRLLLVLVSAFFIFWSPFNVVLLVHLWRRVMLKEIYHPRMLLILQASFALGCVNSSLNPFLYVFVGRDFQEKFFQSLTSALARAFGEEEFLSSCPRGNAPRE
How it was run: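 Beta-arrestin recruitment read-out: luminescence from complemented beta-Gal in CHO-K1 GPR32 PathHunter cells, measured 1 h after detection reagent at ambient temperature following 90 min compound exposure at 37 °C; DMSO served as basal (EC0) control.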

activation, inactive:
CCS(=O)(=O)N1N=C(c2ccc(C)cc2)CC1c1cc2ccc(OC)cc2nc1Cl (centres undefined) 2.49%
COc1ccccc1OC(C)C(=O)NCC1(N2CCOCC2)CCCCC1 (centres undefined) -17.5%
Cc1ccc(Cn2cccc2C2=NC(C)(C)CO2)cc1 4.17%
CCc1nn(CCCC(=O)NCc2ccccc2Br)c(=O)c2cc3occc3n12 -10.8%
Cc1ccc(OC(=O)c2cc(-c3ccc4c(c3)OCCO4)on2)c(C)c1 -19.8%
CCCC(=O)N1c2ncnn2C2(CCCCC2)[C@@H]2CCCC[C@@H]21 2.62%
COc1ccc(NC(=O)CCNS(=O)(=O)c2cccc3nonc23)cc1 -19.2%
CCCCOc1ccc(-c2nonc2NC(=O)c2ccco2)cc1 29.8%
Cc1ccc(OCC(=O)NCC2(N3CCN(C)CC3)CCCCC2)cc1C -4.74%
CSc1ccc(CCNC(=O)C2CCN(c3nc4ccccc4nc3C(F)(F)F)CC2)cc1 -17.2%
O=C(Cn1c(=O)n(Cc2ccc3c(c2)OCO3)c(=O)c2oc3ccccc3c21)Nc1ccccc1 -15.9%
CCc1ccc(-c2nc3ccc(Br)cc3c(C(=O)O)c2C)s1 -24.7%
Cc1ccccc1CNC(=O)C1CCN(c2nnc(C)c3c(C)n(-c4ccccc4)nc23)CC1 -4.73%
CCn1c(C(=O)NCc2cccc(Br)c2)cc2oc3ccccc3c21 -27.4%
COC(=O)c1ccc(NC(=O)c2c(NCc3ccc(C)o3)sc3c2CCCC3)cc1 1.66%
CN1C(=O)C2(c3ccccc31)N(c1ccccc1)C(=O)CS2(=O)=O (centres undefined) -4.19%
CCc1nnc(NC(=O)c2cc(=O)c3cc(C)c(C)cc3o2)s1 -9.96%
COc1cc(-c2noc(-c3cc4cc(F)ccc4oc3=O)n2)cc(OC)c1OC -7.52%
Cc1cc(C)c2oc(C(=O)Nc3sc4c(c3C(=O)NCc3ccco3)CCC4)cc(=O)c2c1 5.75%
C[C@@H]1CCN(C(=O)[C@H](CCCN=C(N)N)NS(=O)(=O)c2cccc3c2NC[C@H](C)C3)[C@@H](C(=O)O)C1 -5.64%
COc1ccc(-c2nc3scc(CCNS(=O)(=O)c4c(C)noc4C)n3n2)cc1 -3.06%
Cc1ccc(NC(=O)/C=C/c2ccccc2)c(Br)c1 35.6%
CN1CCN(C(=O)C(=O)Nc2c3c(nn2-c2ccc(F)cc2)CSC3)CC1 -11.4%
Cc1ccc(C)c(CN2C(=O)c3ccccc3S(=O)(=O)c3ccc(C(=O)Nc4ccccc4C(F)(F)F)cc32)c1 -11%
